# Reference: PMC4336329 (PLoS ONE, 2015)
# About 2,200 (0.71%) of roughly 310,000 compounds showed an effect of 50% or more. The effect is printed as a negative number. This is one part of the list.
# Target: human ether-à-go-go-related gene (hERG) potassium channel (human, UniProt Q12809)
# Assay: primary screen, population patch clamp on CHO cells stably expressing hERG
# human ether-à-go-go-related gene (hERG) potassium channel, sequence (Q12809 whole entry, looked up): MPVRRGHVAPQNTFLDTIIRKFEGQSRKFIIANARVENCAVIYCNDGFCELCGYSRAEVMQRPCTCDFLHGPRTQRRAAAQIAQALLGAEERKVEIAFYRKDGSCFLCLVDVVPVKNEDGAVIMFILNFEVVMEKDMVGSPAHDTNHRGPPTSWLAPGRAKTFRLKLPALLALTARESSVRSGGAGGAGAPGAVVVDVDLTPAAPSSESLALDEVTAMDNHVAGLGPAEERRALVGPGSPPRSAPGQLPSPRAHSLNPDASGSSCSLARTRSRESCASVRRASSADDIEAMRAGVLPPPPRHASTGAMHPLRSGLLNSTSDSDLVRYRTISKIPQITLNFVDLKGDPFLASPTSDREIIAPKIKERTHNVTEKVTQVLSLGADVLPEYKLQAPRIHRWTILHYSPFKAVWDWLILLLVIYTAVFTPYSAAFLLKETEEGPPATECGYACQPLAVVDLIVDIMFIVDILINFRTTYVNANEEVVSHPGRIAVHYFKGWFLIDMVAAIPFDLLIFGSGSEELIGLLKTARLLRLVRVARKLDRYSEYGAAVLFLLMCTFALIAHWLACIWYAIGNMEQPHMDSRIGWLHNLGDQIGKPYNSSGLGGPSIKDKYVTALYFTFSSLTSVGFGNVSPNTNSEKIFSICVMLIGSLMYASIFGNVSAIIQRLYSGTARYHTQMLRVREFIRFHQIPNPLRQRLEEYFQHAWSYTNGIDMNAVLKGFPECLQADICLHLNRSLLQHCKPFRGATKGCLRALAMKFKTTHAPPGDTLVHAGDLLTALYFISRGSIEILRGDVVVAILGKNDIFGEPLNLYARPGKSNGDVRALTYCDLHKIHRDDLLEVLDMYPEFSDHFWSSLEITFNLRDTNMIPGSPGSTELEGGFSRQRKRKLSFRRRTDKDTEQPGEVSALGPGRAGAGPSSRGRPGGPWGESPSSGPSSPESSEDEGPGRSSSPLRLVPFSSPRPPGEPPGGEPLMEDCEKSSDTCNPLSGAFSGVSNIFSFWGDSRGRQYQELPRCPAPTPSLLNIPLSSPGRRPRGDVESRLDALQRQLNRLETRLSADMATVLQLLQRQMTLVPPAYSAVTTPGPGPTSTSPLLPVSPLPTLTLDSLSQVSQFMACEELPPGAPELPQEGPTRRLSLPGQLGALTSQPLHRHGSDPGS
row,Structure (SMILES),"hERG current change (%, negative = inhibition) at 1uM [%]"
1,COc1ccc(C(=O)C2CCCN(C(=O)c3cccnc3SC)C2)c(C)c1 (centres unmarked),16.7
2,Cc1cccc(NC(=O)CN2C(=O)N/C(=C\c3ccc(N4CCOCC4)cc3)C2=O)c1,7.34
3,Cc1ccc(NC(=O)CN(C)C(C)C(=O)Nc2ccc(S(=O)(=O)N3CCCC3)cc2)cc1 (centres unmarked),7.44
4,CN(C)/C=C(/C(=O)c1ccc(Cl)cc1)S(C)(=O)=O,14.4
5,CC(C)CC(CO)N1CCN(C(=O)c2cccc(Cl)c2)CCC1=O (centres unmarked),7.06
6,Brc1ccc(-c2csc(/N=C/N3CCOCC3)n2)cc1,-8.54
7,CCc1ccc(NC(=O)CSc2nnnn2-c2cccnc2)cc1,0.79
8,CCOC(=O)N1CCN(c2ccc(S(=O)(=O)N3CCOCC3)cc2[N+](=O)[O-])CC1,2.97
9,COc1ccc(CN(C(=O)CNC(=O)c2ccco2)C(C(=O)NC2CCCC2)c2ccco2)cc1 (centres unmarked),2.21
10,O=[N+]([O-])c1ccccc1Oc1cnc2ccccc2n1,-5.01
11,c1ccc(CN2CCN(Cc3ccc4ccccc4c3)CC2)cc1,15.9
12,CNCCOc1ccccc1-c1ccccc1.O=C(O)C(=O)O,3.21
13,Nc1ncc2c(n1)-c1cc(Cl)ccc1SC2,-11.7
14,N#Cc1cc(N2CCCCC2)c([N+](=O)[O-])cc1C#N,15.3
15,CC1CCCCN1C(=O)Cn1c(=O)n(-c2ccc(F)cc2)c(=O)c2sccc21 (centres unmarked),1.88
16,COC(=O)Nc1ccc2c(c1)N(C(=O)CCN(C)C)c1ccccc1CC2.Cl,15.3
17,COc1ccc(OC)c(NC(=O)C2CCCN(S(=O)(=O)c3cccc4nsnc34)C2)c1 (centres unmarked),5.54
18,O=C(CN1C(=O)/C(=C/c2ccc(F)cc2)SC1=S)NC1C=CS(=O)(=O)C1 (centres unmarked),26.4
19,CN(c1ccccc1)S(=O)(=O)c1cccc(Cl)c1Cl,7.11
20,CC(Oc1ccccc1)C(=O)N=C1SC2CS(=O)(=O)CC2N1CCc1ccccc1 (centres unmarked),8.75

row,Structure (SMILES),"hERG current change (%, negative = inhibition) at 1uM [%]"
1,Cc1ccc(S(=O)(=O)N(Cc2ccccc2)c2ccccc2C(=O)N2CCCCC2)cc1,-1.52
2,CC(C)CCNC(=O)C(c1ccc(O)cc1)N(C(=O)C1COc2ccccc2O1)c1cccc(O)c1 (centres unmarked),9.7
3,O=C(Nc1ccccc1)c1nc2ccccc2s1,8.28
4,COC(=O)c1sccc1NC(=O)C1CC2CCC1C2 (centres unmarked),20.7
5,O=C(Nc1ccc(F)cc1F)N1CCCCCC1,12.6
6,O=C(/C=C/c1ccc(O)cc1)c1ccc(O)cc1O,12.5
7,COc1ccc(NC(=O)C2CCC(=O)N2)cc1 (centres unmarked),3.06
8,Nc1ccc(S(=O)(=O)NC(Cc2ccccc2)C(=O)O)cc1 (centres unmarked),14.7
9,Cc1sc(=NC(=O)c2ccco2)n(C)c1-c1ccccc1,5.23
10,Cc1cccc(NC(=S)NCCc2ccccc2)n1,7.34
11,COC(=O)c1cc(OC)c(OC)cc1NC(=O)c1c(-c2ccccc2Cl)noc1C,1.26
12,COc1ccc(CNCCCSc2ncccn2)cc1OC.Cl,13.6
13,Clc1ccc2nc(-c3ccccc3)c(CN3CCOCC3)n2c1,6.55
14,S=C(NCCc1ccccc1)Nc1cnc2ccccc2c1,12.5
15,C#CCOc1nc(OCC#C)nc(OCC#C)n1,14
16,COc1ccc(-c2nc3ccccc3c(=O)n2CCOc2ccccc2C)cc1,10.6
17,Cc1cc(C)n(-c2nc3c(c(=O)[nH]c(=O)n3C)n2Cc2cccc(Br)c2)n1,6.8
18,Nc1ccccc1C#Cc1ccc2[nH]ccc2c1,13.1
19,Cc1cc(C)n(C(=O)COc2ccc([N+](=O)[O-])cc2)n1,8.19
20,COc1cc(CN2CCC(C(=O)N3CCCC(C)C3)CC2)cc(Br)c1O.O=C(O)C(=O)O (centres unmarked),-3.34

row,Structure (SMILES),"hERG current change (%, negative = inhibition) at 1uM [%]"
1,CCOc1cc(/C=C2\SC(N)=NC2=O)ccc1O,10.3
2,CC(=O)Oc1ccc(C(C)=O)c2c1OCCO2,10.3
3,COc1ccc2c(c1)CCc1c(C(=O)Nc3c(C)n(C)n(-c4ccccc4)c3=O)noc1-2,11.7
4,Cc1c(C(=O)OCC(=O)Nc2ccc(C(N)=O)cc2)cccc1[N+](=O)[O-],11
5,Cc1ccc(NC(=O)CCC(=O)NNC(=O)COc2ccc([N+](=O)[O-])cc2)c(C)c1,12.3
6,COc1ccc(CNC(=O)CN(Cc2ccc(OC)cc2)C(=O)CCC(=O)Nc2nccs2)cc1,10.5
7,O=C(N/N=C/c1c(O)n(C2CC2)c(=S)[nH]c1=O)c1ccccc1O,7.97
8,CCCCCNC(=O)C1CC=CCC1C(=O)O (centres unmarked),10.1
9,CCOC(=O)COc1cccc2c(=O)n(CC(=O)N3CCCc4ccccc43)ccc12,14.4
10,COCCNC(=O)CN(C(=O)c1ccc(N2CCCC2)nc1)c1ccccc1,7.3
11,CC(C)Oc1ccc(C(=O)NCc2ccco2)cc1,14.8
12,Cc1cc(S(=O)(=O)N2CCCC(N3CCOCC3)C2)c(C)cc1Cl (centres unmarked),1.19
13,Cc1nc2ccccc2cc1OCc1ccccc1,23.7
14,Cc1ccccc1NN1C(=O)C=CC1=O,1.59
15,C=CCNC(=S)/N=c1\sccn1C,10.9
16,COc1ccc(CN(C)Cc2nc3scc(-c4ccccc4)c3c(=O)[nH]2)cc1OC,10.2
17,c1ccc2c(c1)Cn1nc(Cc3nc4c(s3)CCCC4)nc1-2,5.36
18,COc1cc2nc(=S)n3[nH]c(CCn4c(C)nc5ccccc54)nc3c2cc1OC,4.66
19,CCN1CCN(C(=O)Cn2c(=O)sc3ccccc32)CC1,0.639
